# Reference: the supplement of paper PMC11417369
# ± gives the standard deviation of the averaged measurements. The list shows a part of the results.
# System: PfAP2-LT AP2 domain (GST-tagged)
# Assay: gcPBM binding intensity (ln(normalized median fluorescence intensity)); higher = stronger DNA binding
# Outline: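 Binding intensity is the highest Masliner-normalised natural-log median intensity over replicate spots in either probe orientation. To obtain it, GST-tagged P. falciparum DNA-binding domains made in E. coli were incubated for 1 h on an Agilent 4 × 180k array of primer-extended double-stranded 36-bp intergenic genomic probes plus negative controls. Detection used Alexa488 anti-GST antibody with scanning at 488 nm.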
row,Sequence,gcPBM binding intensity (ln)
1,TATTTTTAGAAAATAAAGAAGGAGAATTGAAAATAT [CACACA_negctrl_site361],8.41 ± 0.48
2,TTTTATTTTGGAACGTGTACATATAATTATTTATTG [XGTACX_site8094],8.74 ± 0.47
3,GTTCCATATATTACATGTACATATTTTTACATTTAA [XGTACX_site660],9.12 ± 0.36
4,TGATTAATAGCAGGTAGTACTATAATAATATAAATA [XGTACX_site2776],8.69 ± 0.52
5,AGAAGAAAAGAAATATGTACATAAACGTCTGAACTA [XGTACX_site1699],9.05 ± 0.54
6,ATAACAAATATGATAGCATGCTACATATTACAACTT [TGCATGCA_site524],9 ± 0.44
7,TTTAAAAAAAAAAAAAAAAATTCTACATGTAATTTA [CACACA_negctrl_site1205],7.96 ± 0.41
8,TGACATAAATTTAATACACACACAAAGAAAAAAAAA [CACACA_site9354],9.31 ± 0.45
9,ATACATATATATATATGTACACACATTAATAAAAAA [XGTACX_site6874],9.05 ± 0.47
10,TATATTTTAGTTAATGCATGTGTGCATCCATTTAAA [TGCATGCA_site887],8.76 ± 0.34
11,TACCAAAATAGACACACACACAAAATATGTAAATAT [CACACA_site6963],9.92 ± 0.45
12,TATAAATAAATTTATACACACACACCCATATATATA [CACACA_site8183],9.73 ± 0.17
13,ATAAAGCCATACAATACACACATTTTACATGGCTGT [CACACA_site5756],9.26 ± 0.42
14,TTTGTTATATTTAATACACACATATTATAAACCCAT [CACACA_site3716],8.91 ± 0.44
15,TAAAATTAGGAAATTGCACACAAAAAAAAACATATT [CACACA_site9349],9.1 ± 0.4
16,AAAAAAAAAAGACACACACACAAATACAAATGGTAA [CACACA_site6906],9.65 ± 0.38
17,TAAAACATGTTTTTATATATTATTATTATATTTATA [XGTACX_negctrl_site8],8.45 ± 0.48
18,ACCCAATTTTTTAGTACACACATATAAATATATAAA [CACACA_site4944],8.87 ± 0.46
19,AACACATACAGACACACACACAAAAAAAAAAAAAAA [CACACA_site6322],9.58 ± 0.78
20,ACTACATAAAATGACACACACAAACTTTAAAATTTA [CACACA_site3474],9.26 ± 0.38
21,CACCTGCACGATTGCACACAAATATGTTTTGAAGAT [CACACA_site2103],9.21 ± 0.45
22,TATATTTGGAAACACACACACAAAAAAAAAAAAAAA [CACACA_site2474],9.36 ± 0.42
23,ATATTTTCTAATCAATGTACTTATTCTACACATTAA [XGTACX_site5774],8.72 ± 0.46

row,Sequence,gcPBM binding intensity (ln)
1,ATATTTTATGTAAAGGTGCAAAACAACATTAAAAAA,9.04 ± 0.43
2,ATATATACATTTCTATGTACATATGTATATATGTAT [XGTACX_site1522],8.97 ± 0.42
3,TTAATCTAGAGAAATTGTACATTTTATTAACACAAT [XGTACX_site1190],8.54 ± 0.4
4,ATAAAAGAAAACAATAGTACTTTAGTTTTTCTTTTT [XGTACX_site5686],8.46 ± 0.47
5,ATTTTTTTTTTTTGTTTTTTCTTACAAATTAAATGA [CACACA_negctrl_site1457],8.43 ± 0.48
6,AAACCTTTAGAAAATCGTACAAAACATAACCACCTA [XGTACX_site1098],8.91 ± 0.3
7,AAACAAAAGTAGAAGGTAGAGTATTTTATATTTAAA [GTGCAC_negctrl_site503],8.55 ± 0.69
8,AAATAACTCATGGGTTGTACTTAAAAAAAAAAAGAT [XGTACX_site4168],8.81 ± 0.47
9,TTTTTTTTTTTTCACGTGCACTATACATATAAGTAA,8.85 ± 0.34
10,CTCTTGTCATTTTGCACACACACATGGATAGGTTAT [CACACA_site5655],9.81 ± 0.33
11,AATATTGTATATAATAAACACACAATATTAAAAATA [CACACA_site8262],9.03 ± 0.54
12,GTATTTTAATATAAATGTACATAAATGTTATATATA [XGTACX_site3475],8.56 ± 0.4
13,CTTTAAACCCTGAACACACACAAATACAGACAAAAA [CACACA_site247],9.3 ± 0.35
14,TACACAAGAAAATTCACACACACACGGATATTTATA [CACACA_site7765],9.73 ± 0.22
15,ACGTACTGCCCTAAAGTGCATATATAATATAAACGA [GTGCAC_site9911],8.8 ± 0.44
16,GTATCGAAGTAAATACGTACTTAAATATGTTTAAAA [XGTACX_site1353],8.65 ± 0.47
17,ATATGACTTAAATATGTGCGCATTTTTTTTTTTTTT,8.93 ± 0.38
18,CATATATAAATCATGTGTACGTATTGAGTATCTACT [XGTACX_site6278],8.9 ± 0.39
19,AGGATATATAATTAAGTGCATTAATTCAAAATAAAA [GTGCAC_site9702],8.66 ± 0.49
20,ATAAGATATGTATATACACACATTTATTTACCTATA [CACACA_site7521],9.05 ± 0.33
21,TTATTATTTTATAACACACACATATATATTATATCT [CACACA_site1434],9.11 ± 0.35
22,TAAACAAAATATATATGTACATATATATATATATAT [XGTACX_site6502],9.78 ± 0.32
23,TTTTATTTGACAAGCACACACTTAAATATATTTATA [CACACA_site7557],8.91 ± 0.42

row,Sequence,gcPBM binding intensity (ln)
1,AAAACATTTTCAAACTGTACACATAGAACTATGCAT [XGTACX_site4087],8.79 ± 0.38
2,ACATAAGAAGTTATATGTACATATATTTTTTAAATT [XGTACX_site8078],8.71 ± 0.51
3,ATCTAGCCATTTTTTAGTACACATAAATAAAAAAAA [XGTACX_site1257],8.41 ± 0.5
4,CATTAATAACAAAGTTGTACAAGATAATATTATATG [XGTACX_site6832],8.98 ± 0.49
5,ATGTGTGTATTTTATAGTACAGTTACAAGCATTTTT [XGTACX_site6351],9.12 ± 0.29
6,TTTTTCTGTTCTTTTTGTACTTAAATATATTTATTT [XGTACX_site5658],8.85 ± 0.54
7,ACAATGAGGATATATACACACATACATTAAAAAAAT [CACACA_site6955],9.24 ± 0.44
8,AAAAAAGAAAAAAGGACACACATAAATATACACCCG [CACACA_site5590],9.49 ± 0.3
9,CACAAAAATAAACACACACACATATATATATATATA [CACACA_site4704],10.21 ± 0.057
10,AGAATATAATTTTTATGTACATATATTAAATATATT [XGTACX_site8521],8.61 ± 0.33
11,AATTTTCTACAAATGTGTACTAAATAAAATATTACT [XGTACX_site7175],8.63 ± 0.39
12,TATTTATTTATAAACACACAAATATTTTTATTTATA [CACACA_site6889],8.49 ± 0.32
13,AAGAAAAGCAAACAAGTGCATAATAACAAAAAAAAT [GTGCAC_site9725],9.05 ± 0.51
14,TAAGTTCGAATTACTTAAATATTGATTTTTTTAAAA [TGCATGCA_negctrl_site114],8.16 ± 0.4
15,AAATAAGAGAAAATATGTACATACATATATTTATAT [XGTACX_site6210],8.87 ± 0.48
16,TCATAAAATATGTTTTGTACATAAAATTAAACAAGT [XGTACX_site1763],8.59 ± 0.49
17,ATATAATTTGTTATACTAACTTTTTAATTATTGATA [GTGCAC_negctrl_site443],8.52 ± 0.45
18,AAATATAAATAAAGATGTACATTATCTATATGTGAT [XGTACX_site4863],8.82 ± 0.47
19,AATACGTTTATATATTGTACGTTATATATATATATA [XGTACX_site7452],9.04 ± 0.17
20,ATCCGTGTCTGAAATACACACATGATAATGTGAATG [CACACA_site8210],8.96 ± 0.32
21,ATGGAAACAAGCATCACACATATAAATATATATATA [CACACA_site4979],9.04 ± 0.35
22,ACCATGATAAATGTATTAAATGTATCATAACCTATG [CACACA_negctrl_site513],8.79 ± 0.38
23,AGGAATTTATAAAATTGTACTTTTAATTACCTACAG [XGTACX_site3153],8.6 ± 0.49

row,Sequence,gcPBM binding intensity (ln)
1,CAAACATTTTAATGTACACACACCCACAGACAAACA [CACACA_site5522],9.57 ± 0.13
2,TTCTTTTTGAAATATTAACACACATTTTGTTAATTA [CACACA_site9337],8.73 ± 0.52
3,ATATCTTATATCTTCACACATACACAATAAATACAT [CACACA_site5028],8.98 ± 0.43
4,CTAAGAAGTATTTACACACCAACAAGGCGAAAAAAA [CACACA_site2945],8.93 ± 0.45
5,AATGTATTCTCTCATGCACACTTTCTTTAAGGGACC [CACACA_site5245],8.91 ± 0.37
6,TAATATATTATGAGGGGTACATAATATGGTTTATTG [XGTACX_site8301],8.81 ± 0.41
7,ATATTTATATTTATGTGTACATATGAAATAATTATT [XGTACX_site7765],8.71 ± 0.4
8,ATTCATATTAAATATATATATATATATATATATATA [CACACA_negctrl_site484],9.31 ± 0.028
9,GAAGAAAAAGAAAAAAGTACATATATTATATTATAA [XGTACX_site7870],8.53 ± 0.61
10,GTTTTTAAATATGCCATACACACTACTATATAATAA [CACACA_site1927],8.71 ± 0.35
11,TAATATATTAATTTTTGTACTTAATTATATGTTTTT [XGTACX_site5654],8.62 ± 0.45
12,TAAGATGATATAGACTGTACATATTGAACTTACAAG [XGTACX_site4290],8.69 ± 0.49
13,TATGAAATGCTCCAATCACACATGAATGTAATATAT [CACACA_site5458],8.73 ± 0.35
14,ATATGATTTATAAAGTGTACCTTATTATAAGAAACA [XGTACX_site7914],8.48 ± 0.45
15,TTTTTTTTTTTTAGAGTACACACTTTTTTACATTTA [CACACA_site3836],8.65 ± 0.52
16,GTTGAAAATACAGAACGTACACGTTTGCCATATTGT [XGTACX_site2254],8.96 ± 0.39
17,AGTTATAAAATATTTGCATGTAAATATATTATCTAT [TGCATGCA_site1015],8.74 ± 0.37
18,ACTTTTATTATTTATATACACACTTGCTGAAATGTT [CACACA_site3637],9.31 ± 0.47
19,ATAAAAAAAAGAAAAACACACACATATATATATATA [CACACA_site8243],9.77 ± 0.27
20,ATAATAATAGTAATATGTACATATATATATATATAT [XGTACX_site7437],9.77 ± 0.33
